# Results taken from PubChem BioAssay AID2147 (National Center for Advancing Translational Sciences (NCATS), 2009).
# Where “and” joins values, the source holds several entries; their conditions need not be identical. Equal entries are not always repeated. About 3,600 (1.6%) of roughly 230,000 compounds were called active. The shares of active, inactive and inconclusive entries below differ from those in the screen. Calls follow the shape of the dose curve; as a rule, active = well fitted inhibition curve with a large enough effect (not every such curve was filed as active); inconclusive = small, poorly fitted or top-dose-only effect, or another doubt; inactive = no such curve, though single readings can be large or run the other way. Where the call is inconclusive, the potency comes from a doubtful curve fit.
# Target: Lysine-specific demethylase 4E (Homo sapiens) (UniProt B2RXH2)
# Assay: qHTS Assay for Inhibitors of Human Jumonji Domain Containing 2E (JMJD2E)
# Details: JMJD2E catalytic domain, FDH-coupled NADH fluorescence (FDH is formaldehyde dehydrogenase); series mostly up to 57.1 µM; activity change, negative = inhibition: at the top concentration
# Also: nearly all actives have a fitted effect of over 50% in size.
# 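For activity change, negative = inhibition in this document: 0% = wells with enzyme and -100% = buffer wells without enzyme.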
# Potency is read from the fitted curve at half-maximal effect; tags tell the direction and shape of the fitted curve.
# UniProt B2RXH2, sequence (B2RXH2 whole entry, looked up, the tested form may be a part): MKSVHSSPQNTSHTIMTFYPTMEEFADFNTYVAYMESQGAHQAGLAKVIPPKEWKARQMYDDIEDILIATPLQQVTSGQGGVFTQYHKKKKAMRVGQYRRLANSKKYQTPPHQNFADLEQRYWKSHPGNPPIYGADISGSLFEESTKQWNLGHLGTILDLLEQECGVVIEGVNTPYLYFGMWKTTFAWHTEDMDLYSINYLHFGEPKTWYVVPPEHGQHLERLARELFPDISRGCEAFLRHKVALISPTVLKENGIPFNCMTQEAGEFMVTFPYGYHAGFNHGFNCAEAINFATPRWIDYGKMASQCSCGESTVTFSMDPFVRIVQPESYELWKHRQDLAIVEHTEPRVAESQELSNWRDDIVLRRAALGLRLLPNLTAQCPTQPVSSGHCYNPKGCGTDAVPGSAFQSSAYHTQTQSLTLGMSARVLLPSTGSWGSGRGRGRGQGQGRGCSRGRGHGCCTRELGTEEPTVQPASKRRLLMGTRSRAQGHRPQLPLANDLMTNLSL
SMILES,"activity change, negative = inhibition",Potency
c1ccc(CN2CCC3(CC2)Nc2ccccc2S3)cc1,inactive: -9.96%,
CCS(=O)(=O)c1ccc(OC)c(N=Nc2ccc(O)c3ncccc23)c1,,active: 17.8 µM
COc1ccc2c(c1)C(=O)[C@H](OC(=O)N[C@H](C)C1CCCCC1)[C@@H](c1ccc(OC)c(Br)c1)O2,inactive: -26.7%,
CC(C)c1ccc(Oc2cccc(C(=O)/C(C#N)=C/N(C)C)c2)cc1,inactive: -2.3%,
COc1ccc(/C=C/C(=O)C2CC2)cc1COc1cccc(C)c1C,inactive: 1.91%,
O=C1CN(C(=O)CSc2nc(-c3ccccc3)cs2)c2ccccc2N1,inactive: -2.21%,
CCN1CCCC1Cn1cnc2c([nH]c3cccc(Cl)c32)c1=O (stereo not given),,"inconclusive: 31.6 µM [inhibitor, partial curve]"
CCOC(=O)c1c(C)oc2c1c(C(c1ccncc1)N1CCOCC1)c(O)c1ccccc12 (stereo not given),,"inconclusive: 25.1 µM [inhibitor, single point]"
CCn1c(=NC(=O)C2COc3ccccc3O2)sc2c(OC)ccc(OC)c21 (stereo not given),,"inconclusive: 35.5 µM [inhibitor, single point]"
Cc1ccc2[nH]c(-c3ccccc3)cc(=O)c2c1,,"inconclusive: 28.2 µM [inhibitor, single point]"
CC(/C=C/c1ccccc1)=N/NC(=O)c1nc2nc(C)cc(C)n2n1,,"inconclusive: 35.5 µM [inhibitor, single point]"
COC(=O)C1=C(C)NC2=C(C(=O)CCC2)C1c1cn(Cc2ccc(Br)cc2)nc1-c1ccccc1 (stereo not given),,"inconclusive: 28.2 µM [inhibitor, partial curve]"
Cc1c(NC(=O)c2cc(-c3cccs3)on2)c(=O)n(-c2ccccc2)n1C,inactive: -1.07%,
CC(=O)c1ccc(-c2ccc(C(=O)N3CCCc4ccccc43)o2)cc1,,"inconclusive: 28.2 µM [inhibitor, single point]"
COc1ccccc1/C=C/C(=O)OCCN1CCOCC1,,"inconclusive: 31.6 µM [inhibitor, partial curve]"
Cc1c(NC(=O)c2cc3nc(-c4ccccc4)cc(C)n3n2)c(=O)n(-c2ccccc2)n1C,,"inconclusive: 31.6 µM [inhibitor, single point]"
C=CCOc1ccccc1CNc1ccc2[nH]c(=O)[nH]c2c1,,"inconclusive: 28.2 µM [inhibitor, single point]"
Cc1ccc(S(=O)(=O)Nc2nc3ccccc3nc2NCc2ccc3c(c2)OCO3)cc1C,,"inconclusive: 4.47 µM [inhibitor, single point]"
O=C(CNc1cccc2ccccc12)c1ccc([N+](=O)[O-])cc1,,"inconclusive: 3.16 µM [inhibitor, partial curve]"
COc1ccc(CN(C)Cc2cc(=O)n3ccsc3n2)c(OC)c1OC,,"inconclusive: 39.8 µM [inhibitor, single point]"
COc1ccccc1-c1cc(=O)c2cccc(OC)c2o1,,"inconclusive: 31.6 µM [inhibitor, partial curve]"
COC(=O)c1ccc2c(c1)N(C)CCS2,,"inconclusive: 35.5 µM [inhibitor, partial curve]"
CCC(C)NC(=O)CSC1=Nc2ccccc2C2=NC(CC(=O)NCc3ccccc3)C(=O)N12 (stereo not given),,"inconclusive: 31.6 µM [inhibitor, partial curve]"
CCOc1ccc(-n2c(C)cc(/C=N\NC(=O)CC(=O)NC3CCCCC3)c2C)cc1,,"inconclusive: 39.8 µM [inhibitor, single point]"

SMILES,"activity change, negative = inhibition",Potency
CN1CCN(c2ccc(S(=O)(=O)N3CCCCC3)cc2NC(=O)c2ccc3ccccc3c2)CC1,inactive: -0.942%,
Cc1ccn2c(NC3CCCC3)c(-c3ccsc3)nc2c1,,"inconclusive: 28.2 µM [inhibitor, partial curve]"
CC1CCCCN1C(=O)CSc1nnc(-c2ccco2)n1CC1CCCO1 (stereo not given),inactive: -5.49%,
CCOCCCNC(=O)c1ccc(N2CCCC2)c(NS(=O)(=O)c2ccc(C)cc2)c1,,"inconclusive: 28.2 µM [inhibitor, single point]"
O=C(Nc1ccccc1N1CCCCC1)c1ccc(-c2ccc(Cl)cc2)o1,,"inconclusive: 35.5 µM [inhibitor, partial curve]"
CN(CCCOc1ccccc1Br)Cc1ccccc1,inactive: 6.39%,
O=c1ccn(Cc2ccccc2)c(=O)n1Cc1ccccc1,inactive: -0.347%,
S=c1[nH]nc(-c2ccco2)n1/N=C/c1ccccn1,inactive: -29.2%,
O=C1ON=C(c2ccccc2)/C1=C/c1ccc(-c2ccccc2[N+](=O)[O-])o1,,"inconclusive: 39.8 µM [inhibitor, single point]"
Cc1ccccc1OCC(=O)Nc1ccc2c(c1)OCCO2,,"inconclusive: 39.8 µM [inhibitor, single point]"
O=C(NCCCNC(=O)c1cncc(O)c1)c1cncc(O)c1,,"inconclusive: 25.1 µM [inhibitor, partial curve]"
CCN(CC)c1ccc(C=NCCc2ccc(S(N)(=O)=O)cc2)cc1,inactive: -7.48%,
NC(=O)c1ccsc1NC(=O)COC(=O)c1ccccc1NCc1ccco1,,"inconclusive: 31.6 µM [inhibitor, partial curve]"
O=C(O)Cc1ccc(O)c(O)c1,,active: 25.1 µM
CCCCN=C1NN=C(c2ccc3c(c2)OCCO3)CS1,,"inconclusive: 25.1 µM [inhibitor, single point]"
Cc1cccc(C(=O)Nc2cc(OCc3cccc(F)c3)c(Cl)cc2Cl)c1,,"inconclusive: 39.8 µM [inhibitor, single point]"
CCCc1nc2c(C)cc(-c3nc4ccccc4n3C)cc2n1Cc1ccc(-c2ccccc2C(=O)O)cc1,,"inconclusive: 11.2 µM [inhibitor, partial curve] and inconclusive: 25.1 µM [inhibitor, partial curve]"
CCN(C(=O)COC(=O)c1cncc(Br)c1)C1CCS(=O)(=O)C1 (stereo not given),inactive: -4.41%,
COc1ccccc1CNc1cc(-c2cccc(NS(C)(=O)=O)c2)ncn1,,"inconclusive: 39.8 µM [inhibitor, single point]"
CCOC(=O)CCC(NC(=O)c1ccccc1C(=O)NC(CCC(=O)OCC)C(=O)OCC)C(=O)OCC (stereo not given),inactive: -8.66%,
CCOCCCNC(=O)Cn1cnc2sc(C)c(S(=O)(=O)N3CCN(c4ncccn4)CC3)c2c1=O,,"inconclusive: 31.6 µM [inhibitor, single point]"
Cc1ccc(NC(=O)c2cncc(Br)c2)c(O)c1,inactive: -2.15%,
O=C(N/N=C/c1cc2c(cc1Br)OCO2)C1COc2ccccc2O1 (stereo not given),,"inconclusive: 35.5 µM [inhibitor, single point]"
c1ccc(-c2cc3c(-n4cccc4)ncnc3o2)cc1,,"inconclusive: 31.6 µM [inhibitor, partial curve]"

SMILES,"activity change, negative = inhibition",Potency
Cc1ccc(OCCCCN(C)Cc2ccccc2)c(Br)c1,,"inconclusive: 39.8 µM [inhibitor, single point]"
N#Cc1ccc(CSc2ncnc3c2cnn3Cc2ccccc2)cc1,,"inconclusive: 39.8 µM [inhibitor, single point]"
CCOC(=O)C1=C(C)NC(=O)C(C#N)C1c1ccco1 (stereo not given),,"inconclusive: 3.16 µM [inhibitor, partial curve]"
O=C(NC(C(=O)N/N=C/c1cccnc1)c1n[nH]c(=O)c2ccccc12)c1ccccc1 (stereo not given),inactive: 2.42%,
Cc1ccn2c(-c3csc(NCc4ccco4)n3)c(C)nc2c1,,"inconclusive: 20 µM [inhibitor, single point]"
Cc1noc(C)c1C(=O)N1CCN(c2ncccn2)CC1,,"inconclusive: 39.8 µM [inhibitor, single point]"
Cc1ccccc1OCC(=O)N/N=C/c1ccc(N(C)C)cc1,,"inconclusive: 25.1 µM [inhibitor, partial curve]"
CC1CN(c2nc3ccccc3nc2C(C#N)C(=O)NCc2ccc3c(c2)OCO3)CC(C)O1 (stereo not given),inactive: 2.53%,
NC(=O)c1nsc(C(=O)N(c2ccccc2)C(C(=O)NCC2CCCO2)c2cccs2)c1N (stereo not given),,"inconclusive: 28.2 µM [inhibitor, partial curve]"
Cc1c(C#N)c(=O)oc2ccc3ccccc3c12,,"inconclusive: 12.6 µM [inhibitor, partial curve]"
COc1ccc(S(=O)(=O)N2CCCC2)c(Cl)c1Cl,inactive: -4.39%,
CC1=C(C(=O)N2CCOCC2)C(c2ccccc2F)C2=C(CC(C)(C)CC2=O)N1 (stereo not given),,"inconclusive: 28.2 µM [inhibitor, partial curve]"
Cc1ccc(C(=O)Nc2sc3c(c2C(=O)NCc2ccco2)CCCC3)cc1,,"inconclusive: 31.6 µM [inhibitor, partial curve]"
CCn1c(=O)c2cc(C(=O)NCc3cccs3)sc2c2ccccc21,,"inconclusive: 7.08 µM [inhibitor, partial curve]"
CCc1ccc(NC(=S)N(CCN(C)C)C(C)c2ccncc2)cc1 (stereo not given),inactive: 15.4%,
CN(C)CCOc1ccccc1Cc1ccccc1,,"inconclusive: 39.8 µM [inhibitor, single point]"
CCCc1nc(SCc2ccccc2Cl)n[nH]1,inactive: -0.763%,
COc1ccc(CNC(=O)c2sc(=S)n(-c3ccccc3)c2N)cc1,,"inconclusive: 25.1 µM [inhibitor, single point]"
COc1ccccc1N1CCN(C(=O)CSc2nnc(NC(=O)C(C)C)s2)CC1,,"inconclusive: 39.8 µM [inhibitor, single point]"
CC(C)(C)C(=O)Nc1ccc(C(=O)N/N=C/c2ccccc2OC(=O)c2ccccc2)cc1,inactive: 2.25%,
Cc1ccc(S(=O)(=O)N2CCC(C(=O)N3CCC(C(=O)NCC4CCCO4)CC3)CC2)cc1 (stereo not given),,"inconclusive: 35.5 µM [inhibitor, single point]"
Cc1ccc2nc(SCC(=O)Nc3ccc4c(c3)CCC4)[nH]c2c1,inactive: -0.348%,
